# PMC4336329 (PLoS ONE, 2015)
# About 14,000 (4.5%) of roughly 310,000 compounds showed an effect of 50% or more. Effects have a minus sign here. This is one part of the list.
# Target: human ether-à-go-go-related gene (hERG) potassium channel (human, UniProt Q12809)
# Assay: primary screen, population patch clamp on CHO cells stably expressing hERG
# 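Also: peak tail current of the secondary pulse compared with the same well before compound.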
# Sequence of human ether-à-go-go-related gene (hERG) potassium channel (Q12809 whole entry, looked up): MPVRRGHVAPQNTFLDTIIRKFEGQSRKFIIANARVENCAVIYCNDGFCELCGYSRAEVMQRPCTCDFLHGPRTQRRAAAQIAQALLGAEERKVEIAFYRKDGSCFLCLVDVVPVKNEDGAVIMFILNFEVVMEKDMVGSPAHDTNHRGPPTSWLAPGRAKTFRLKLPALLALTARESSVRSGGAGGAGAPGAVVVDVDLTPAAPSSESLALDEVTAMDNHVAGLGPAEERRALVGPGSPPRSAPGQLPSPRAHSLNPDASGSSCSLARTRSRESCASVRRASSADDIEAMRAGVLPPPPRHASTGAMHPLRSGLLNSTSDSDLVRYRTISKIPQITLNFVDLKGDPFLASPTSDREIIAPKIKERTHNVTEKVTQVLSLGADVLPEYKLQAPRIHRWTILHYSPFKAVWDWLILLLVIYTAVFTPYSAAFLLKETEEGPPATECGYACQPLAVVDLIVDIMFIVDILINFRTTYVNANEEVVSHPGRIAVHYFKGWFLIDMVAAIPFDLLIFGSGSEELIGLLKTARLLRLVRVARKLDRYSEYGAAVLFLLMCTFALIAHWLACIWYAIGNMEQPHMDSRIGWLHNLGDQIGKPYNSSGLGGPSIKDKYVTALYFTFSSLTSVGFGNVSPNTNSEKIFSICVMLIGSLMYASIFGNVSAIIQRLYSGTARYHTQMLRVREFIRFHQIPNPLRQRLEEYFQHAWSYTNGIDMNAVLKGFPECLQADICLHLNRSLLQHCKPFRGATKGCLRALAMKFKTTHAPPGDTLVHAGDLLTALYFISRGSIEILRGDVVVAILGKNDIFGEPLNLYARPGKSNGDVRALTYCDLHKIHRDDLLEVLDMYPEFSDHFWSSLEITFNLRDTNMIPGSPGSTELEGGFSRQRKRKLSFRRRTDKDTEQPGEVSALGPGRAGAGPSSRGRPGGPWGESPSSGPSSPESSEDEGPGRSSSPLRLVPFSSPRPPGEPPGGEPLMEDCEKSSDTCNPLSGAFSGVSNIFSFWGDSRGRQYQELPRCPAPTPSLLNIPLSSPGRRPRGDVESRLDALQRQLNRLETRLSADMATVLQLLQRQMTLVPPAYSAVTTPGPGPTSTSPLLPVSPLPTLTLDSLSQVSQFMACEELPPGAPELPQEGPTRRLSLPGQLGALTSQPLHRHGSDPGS
row,SMILES,"hERG current change (%, negative = inhibition) at 10uM [%]"
1,C/C(=N\NC(=O)CN1CCN(Cc2ccccc2)CC1)c1ccncc1,-35.8
2,CSc1ccccc1NC(=O)c1cc(-c2ccco2)on1,8.37
3,C=CCN1C(=O)c2ccc(C(=O)Nc3ccccn3)cc2C1=O,11.1
4,Cc1ccc2nc(-c3ccc(NC(=O)c4cccnc4)cc3)oc2c1,10.2
5,Cc1ccc(OCC(=O)N2CCC(C)CC2)c([N+](=O)[O-])n1,-7.74
6,O=C1NC2(Nc3ccccc31)C(=O)Nc1ccccc12 (centres unmarked),9.7
7,COc1ccc(CNC(=O)N[C@H](C(=O)O)C(C)C)cc1OC,9.5
8,CC(OC(=O)c1ccc(Cl)nc1)C(=O)NC1(C#N)CCCCC1 (centres unmarked),-6.98
9,COc1ccc2oc(C(=O)OC(C)C(=O)N(C)c3ccccc3)c(C)c2c1 (centres unmarked),-12.3
10,CCOC(=O)CN(c1ccccn1)S(=O)(=O)c1ccccc1,-5.87
11,Cc1cc(C(=O)CSc2nc(N)cc(=O)[nH]2)ccc1F,16.1
12,CN(C)c1ccc(NC(=O)CCCc2ccccc2)cc1,1.39
13,O=C(c1cccn(Cc2ccc(C(F)(F)F)cc2)c1=O)N1CCOCC1,7.12
14,N#CN(CC(N)=O)c1nc(N2CCCCC2)nc(N2CCCCC2)n1,19.9
15,Cc1cc(C)nc(N2CCCC(C(=O)NCCc3ccc(F)cc3)C2)n1 (centres unmarked),-3.41
16,C[C@@]12CCC=C[C@H]1[C@H](c1ccc3ccccc3c1/C=C/c1ccccc1)N(Cc1ccccc1)C2=O,-5.13
17,O=C(Nc1cccc(F)c1)Nc1cccc(Cl)c1,18.5
18,CCNC(=O)CCc1nc(-c2ccc(C(C)(C)C)cc2)no1,-23.2
19,O=C(Cc1cccs1)NCc1cccc(Br)c1,4.53
20,c1ccc(CN=C2NN=C(c3ccccc3)CS2)cc1,3.72
21,CCC1Sc2ccc(S(=O)(=O)CCC(=O)NCc3cccs3)cc2NC1=O (centres unmarked),7.28
22,Cc1ncc(/C=C2\C(=O)Nc3ccccc32)[nH]1,5.07
23,Cc1ccccc1Cn1c(-c2cncs2)nc2ccccc21,-23.5

row,SMILES,"hERG current change (%, negative = inhibition) at 10uM [%]"
1,O=C(O)C1Cc2ccccc2CN1C(=O)CCl (centres unmarked),12
2,CC(C)(Oc1ccc(Cl)cc1)C(=O)N1CCC(C(N)=O)CC1,4.64
3,O=C(O)CN(c1ccccc1)C1SC(=O)NC1=O (centres unmarked),10.1
4,O=C(O)c1ccc(NC(=O)c2cccc(C(=O)Nc3ccc(C(=O)O)cc3)c2)cc1,7.31
5,O=C(CSc1ccc2nnc(-c3ccccc3)n2n1)NCC1CCCO1 (centres unmarked),-22.2
6,O=C1CN(C(=O)c2cc(F)cc(F)c2)c2ccccc2N1,-1.62
7,Cc1ccc(S(=O)(=O)Oc2ccccc2/C=N/O)cc1,-4.86
8,COc1cccc(C(c2sc3ncnn3c2O)N2CCN(C(=O)c3ccco3)CC2)c1 (centres unmarked),-37.2
9,CCOc1ccc(OCC)c(NC(=O)CN(c2ccc(OC)cc2)S(=O)(=O)c2c(C)noc2C)c1,19.4
10,CCc1nc2ccccc2c(C(=O)Nc2cc(C)ccc2C)c1C,-40.4
11,O=C(Cc1ccc(F)cc1)N1CCC2(CC1)NCCc1[nH]cnc12,14.1
12,N#Cc1nc(COc2ccccc2)oc1N1CCC(Cc2ccccc2)CC1,15.4
13,CSc1ncccc1C(=O)OCc1ccc(C#N)cc1.Cl,1.2
14,Cc1ccc(S(=O)(=O)N2CCC(C(=O)NCCCOC(C)C)CC2)cc1,-3.72
15,O=C(OCn1nnc2ccccc2c1=O)c1ccc(N2CCOCC2)c([N+](=O)[O-])c1,-13.5
16,CCN(CC)CC(C)CNC(=O)CN1C(=O)CSc2ccc(S(=O)(=O)N3CCOCC3)cc21 (centres unmarked),12.4
17,COc1ccccc1NC(=S)NNC(=O)c1cc(C)n(C)n1,12.6
18,N/C(=N\OC(=O)c1ccc(Cl)cc1Cl)c1ccncc1,0.0402
19,Cc1ccc(C(=O)Nc2ccnc(-c3cccnc3)n2)cc1,17.9
20,COc1cccc2cc(C(=O)Nc3cc(Cl)ccc3N3CCOCC3)c(=O)oc12,30.1
21,CCN(CC)S(=O)(=O)c1ccc2c(c1)c(=O)c(C(=O)NCCN(C)CCc1ccccc1)cn2C,-67.1
22,Cc1ccc([N+](=O)[O-])cc1NC(=O)CN(C(=O)c1ccccc1Cl)C1CCCCC1,-25.3
23,O=C(CCS(=O)(=O)c1ccccc1)N1CCN(c2ccccc2)CC1,-3.31

row,SMILES,"hERG current change (%, negative = inhibition) at 10uM [%]"
1,CCCn1cnc2c(N)c(C)c(C)cc21,3.71
2,O=S1(=O)CCN2C(c3ccc4c(c3)CCCC4)=CSC2=N1,4.9
3,COc1ccc(Cl)cc1-n1c(=S)sc2c(=O)[nH]c(SCC(=O)C(C)(C)C)nc21,27.6
4,CCOc1ccc2nc(NC(=O)CSCC(=O)Nc3cc(C)on3)sc2c1,28.7
5,O=C(Nc1ccc(NC(=S)NC(=O)c2ccco2)cc1)c1ccccc1,-1.53
6,C=CCN(C(=O)CNC(=O)c1ccco1)C(C(=O)NC1CCCC1)c1ccc(OC)cc1 (centres unmarked),6.79
7,COCCNC(=O)CCC(=O)NNc1nc2ccccc2c2nc(C)nn12,0.57
8,O=C(c1cccs1)N(CC1CCCO1)c1nc(-c2ccccc2)cs1 (centres unmarked),2.57
9,COc1cc(NC(=O)CS(=O)(=O)c2ccc(C)cc2)cc(OC)c1OC,0.3
10,CCCc1ccc2oc(C(=O)N3CCC(C(N)=O)(N4CCCCC4)CC3)c(C)c2c1,-7.06
11,O=C(O)C(Oc1ccc2c(-c3ccccc3)cc(=O)oc2c1)c1ccccc1 (centres unmarked),10.1
12,Cc1cc2c(=O)n(C)c(SCC(=O)Nc3ccccc3)nc2s1,20
13,O=C(N/N=C/c1cccs1)C(=O)Nc1cccc(Cl)c1,24
14,CC1(C)Oc2ccc(C(=O)N3CCc4ccccc43)cc2N(CC(=O)N2CCCC2)C1=O,-8.36
15,CCN(c1ccccc1)S(=O)(=O)c1ccc(Cl)c(C(=O)NCCc2ccc(OC)cc2)c1,-18.1
16,Cc1cc(C)n(CCNS(=O)(=O)c2ccc(Cl)cc2)n1,-5.97
17,CCCCOC(=O)Nc1nccs1,25.9
18,O=C1c2cccc(Sc3ccccc3)c2C(=O)c2c(Sc3ccccc3)cccc21,2.51
19,COc1ccccc1NC(=O)c1nn(-c2cccc(C(F)(F)F)c2)ccc1=O,5.19
20,COc1ccc(CCNC(=O)CN(C)S(=O)(=O)c2ccc(Br)s2)cc1OC,-49.4
21,CC(C)(C)C(=O)Nc1ccc2oc(-c3cc(F)c(F)cc3Cl)nc2c1,14
22,COc1ccc(NS(=O)(=O)c2ccc(C)cc2)c([N+](=O)[O-])c1,-15
23,O=S(=O)(N1CCOCC1)N1CCN(c2ccc(F)cc2)CC1,-31.9

row,SMILES,"hERG current change (%, negative = inhibition) at 10uM [%]"
1,O=C(N/N=C/c1cccc(Br)c1)c1ccc(N2CCCC2=O)cc1,-57.6
2,COc1cccc(-c2nnc(SCc3cccnc3)o2)c1,-6.61
3,CC(C)c1ccc(CNC(=O)C(=O)NCCCn2ccnc2)cc1,-7.7
4,COc1ccc(CNC(=O)C(C)NC(=O)c2cc3ccccc3o2)cc1 (centres unmarked),-12.1
5,CN(C)c1cccc(C(=O)OCC(=O)N(Cc2ccccc2)C2CCS(=O)(=O)C2)c1 (centres unmarked),-0.837
6,Cc1cc(Br)cn2cc(C(=O)O)nc12,31.8
7,COc1cccc(-c2nnc(N(C)C(=O)C3CCOC3)s2)c1 (centres unmarked),-13.1
8,CCOC(=O)c1c(C)[nH]c(C(=O)N/N=C/c2cccc(OC)c2)c1C,-1.43
9,CCS(=O)(=O)Nc1cccc(C2=NN(S(=O)(=O)c3ccc(F)cc3)C(c3cccs3)C2)c1 (centres unmarked),-4.12
10,C/C(=N\NC(=O)c1cccc(C)c1)c1cccc(NC(=O)c2ccco2)c1,-43.4
11,O=C(Oc1ccc(Cl)c2cccnc12)N1CCCCCC1,5.53
12,CCOC(=O)c1cc2occc2n1CC(=O)N1CCCc2ccccc21,-17.3
13,O=C(CSc1nnc(-c2ccncc2)n1-c1ccccc1)NC1CC1,4.69
14,Cc1cccc(C)c1NC(=O)CNC(=O)Cc1c[nH]c2ccccc12,9.32
15,COc1cc(C)c(C(C)C)cc1S(=O)(=O)NCCCn1ccnc1,-9.23
16,CCN(CC1COc2ccccc2O1)C(=O)c1ccc(Cl)c(S(=O)(=O)N2CC(C)OC(C)C2)c1 (centres unmarked),-35.3
17,CC(NC(=O)NC(=O)c1ccc(Cl)cc1)c1ccccc1 (centres unmarked),15
18,CCN(CC)CCn1cnc2c([nH]c3cccc(OC)c32)c1=O,-8.27
19,CSCCC(NC(=O)/C(=C\c1ccc(Cl)cc1)NC(=O)c1ccccc1)C(=O)O (centres unmarked),21.1
20,O=C(c1ccccc1[N+](=O)[O-])N1CCN(c2ccc(N3CCOCC3)nn2)CC1,0.769
